Assay results as given in article PMC9410898.
No constants are given. Whether binding was seen depends on the method and setting. In cells and extracts the contact can be indirect. Some entries that bind do so weakly or less than the wild type. Where a sequence is shown, tags or fusion partners need not be part of it. One block for each molecule: values may come before it.

Chains of the proteins cited; added tags and fusions are not shown.
UniProt Q9NQT4: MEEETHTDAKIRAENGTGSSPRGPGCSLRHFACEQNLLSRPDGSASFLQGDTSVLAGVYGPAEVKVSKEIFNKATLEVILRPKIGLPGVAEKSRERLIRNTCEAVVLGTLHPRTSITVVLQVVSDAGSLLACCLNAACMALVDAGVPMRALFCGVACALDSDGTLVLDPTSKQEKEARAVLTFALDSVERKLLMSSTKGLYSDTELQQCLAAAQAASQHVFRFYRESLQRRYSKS
UniProt Q06265: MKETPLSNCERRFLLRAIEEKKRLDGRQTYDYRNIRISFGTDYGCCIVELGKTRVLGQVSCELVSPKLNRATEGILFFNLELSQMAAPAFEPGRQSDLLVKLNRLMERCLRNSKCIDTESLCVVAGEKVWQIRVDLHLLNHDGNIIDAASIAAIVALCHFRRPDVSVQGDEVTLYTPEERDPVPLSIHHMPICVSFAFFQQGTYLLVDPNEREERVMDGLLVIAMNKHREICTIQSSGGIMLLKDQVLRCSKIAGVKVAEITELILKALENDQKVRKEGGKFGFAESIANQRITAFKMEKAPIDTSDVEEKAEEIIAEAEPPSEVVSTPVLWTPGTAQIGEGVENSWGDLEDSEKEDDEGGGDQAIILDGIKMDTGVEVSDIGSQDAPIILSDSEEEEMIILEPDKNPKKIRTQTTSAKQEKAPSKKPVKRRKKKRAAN

Assays:
GST-MPP6 ΔC33 (human) = molecular target: T1, GST-MPP6 ΔC33 (human) (UniProt Q99547); test: pull-down; GST-MPP6 proteins on glutathione beads, 3 h at 4°C with nuclear extract of FLAG-RRP45 expressing HeLa Flp-In T-REx cells (preincubated with GST beads), PBS with 0.1% Triton X-100, 0.2 mM PMSF, 0.5 mM DTT; immunoblot; only the target purified
T1 sequence: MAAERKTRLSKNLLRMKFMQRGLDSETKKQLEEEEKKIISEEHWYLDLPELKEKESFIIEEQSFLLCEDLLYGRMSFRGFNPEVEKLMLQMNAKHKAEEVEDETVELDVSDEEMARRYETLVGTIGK

[1] = molecular target: T2, GST-MPP6 full-length (human) (UniProt Q99547); test: as above
T2 sequence: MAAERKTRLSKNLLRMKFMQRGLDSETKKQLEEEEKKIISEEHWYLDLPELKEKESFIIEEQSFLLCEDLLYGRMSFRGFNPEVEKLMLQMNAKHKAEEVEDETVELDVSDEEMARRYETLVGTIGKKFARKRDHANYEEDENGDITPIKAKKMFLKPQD

GST-MPP6 ΔN35 (human) = molecular target: T3, GST-MPP6 ΔN35 (human) (UniProt Q99547); test: as above
T3 sequence: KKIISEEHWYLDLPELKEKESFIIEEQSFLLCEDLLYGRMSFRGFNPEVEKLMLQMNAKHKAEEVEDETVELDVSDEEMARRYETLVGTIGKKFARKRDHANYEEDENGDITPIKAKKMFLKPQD

GST-MPP6 ΔC11 (human) = molecular target: T4, GST-MPP6 ΔC11 (human) (UniProt Q99547); test: as above
T4 sequence: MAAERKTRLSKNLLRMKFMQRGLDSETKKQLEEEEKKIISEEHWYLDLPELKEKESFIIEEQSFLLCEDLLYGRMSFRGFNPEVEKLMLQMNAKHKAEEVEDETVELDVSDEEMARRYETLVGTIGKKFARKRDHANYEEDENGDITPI

[2] = molecular target: T5, GST-MPP6 with the internal region 47–68 deleted (human) (UniProt Q99547); test: as above
T5 sequence: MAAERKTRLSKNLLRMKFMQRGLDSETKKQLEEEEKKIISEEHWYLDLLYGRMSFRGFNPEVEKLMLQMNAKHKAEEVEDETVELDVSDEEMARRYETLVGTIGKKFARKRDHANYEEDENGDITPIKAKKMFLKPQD

[3] = molecular target: T6, GST-MPP6 with the internal region 81–105 deleted (human) (UniProt Q99547); test: as above
T6 sequence: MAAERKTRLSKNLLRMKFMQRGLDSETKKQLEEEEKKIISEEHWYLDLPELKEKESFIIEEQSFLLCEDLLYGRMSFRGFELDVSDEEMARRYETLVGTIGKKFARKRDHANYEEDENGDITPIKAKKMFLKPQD

[4] = molecular target: RRP46 (human (endogenous in HeLa)) (UniProt Q9NQT4); test: co-IP; anti-MTR4 antiserum or anti-RRP46 antibody on beads, nuclear extracts of HeLa Flp-In T-REx cells expressing FLAG-fused MPP6 mutants, overnight at 4°C; washed with PBS, 0.1% Triton X-100; immunoblot; rabbit pre-immune antiserum as control
[5] = molecular target: T7, MTR4 (human (endogenous in HeLa)) (UniProt P42285); test: as above
T7 sequence: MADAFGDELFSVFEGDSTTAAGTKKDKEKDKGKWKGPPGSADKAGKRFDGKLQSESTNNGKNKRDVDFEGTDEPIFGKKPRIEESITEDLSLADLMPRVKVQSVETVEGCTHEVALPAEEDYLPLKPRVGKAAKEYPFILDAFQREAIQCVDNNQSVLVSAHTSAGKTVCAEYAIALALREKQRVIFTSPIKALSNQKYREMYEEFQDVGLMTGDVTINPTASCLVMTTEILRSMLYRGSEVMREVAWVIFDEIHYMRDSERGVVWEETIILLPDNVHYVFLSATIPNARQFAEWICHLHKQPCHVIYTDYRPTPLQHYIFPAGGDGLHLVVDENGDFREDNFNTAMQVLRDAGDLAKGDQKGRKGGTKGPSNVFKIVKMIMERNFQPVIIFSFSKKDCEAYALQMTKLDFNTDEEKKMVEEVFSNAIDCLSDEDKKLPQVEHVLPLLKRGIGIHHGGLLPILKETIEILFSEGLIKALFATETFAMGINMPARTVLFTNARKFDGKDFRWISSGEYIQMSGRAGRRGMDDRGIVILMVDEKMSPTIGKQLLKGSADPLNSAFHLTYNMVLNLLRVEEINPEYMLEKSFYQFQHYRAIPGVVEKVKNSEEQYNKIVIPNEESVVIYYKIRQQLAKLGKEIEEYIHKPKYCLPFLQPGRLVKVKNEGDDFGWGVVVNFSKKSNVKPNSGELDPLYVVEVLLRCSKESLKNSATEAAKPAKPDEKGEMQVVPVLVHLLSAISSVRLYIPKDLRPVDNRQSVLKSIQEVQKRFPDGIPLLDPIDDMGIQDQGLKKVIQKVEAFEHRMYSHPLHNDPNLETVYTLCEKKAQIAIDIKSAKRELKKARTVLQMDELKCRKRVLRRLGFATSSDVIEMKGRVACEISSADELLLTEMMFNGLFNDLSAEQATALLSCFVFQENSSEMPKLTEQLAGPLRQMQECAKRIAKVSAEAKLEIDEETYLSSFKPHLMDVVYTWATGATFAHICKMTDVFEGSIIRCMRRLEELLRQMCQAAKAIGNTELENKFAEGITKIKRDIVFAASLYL

B2: FLAG-MPP6 full-length (protein, UniProt Q99547 1-160)
chain: T2 sequence
binding [4]: binds | binding [5]: binds

B3: FLAG-MPP6 ΔN4 (domain or fragment, UniProt Q99547 5-160)
chain: RKTRLSKNLLRMKFMQRGLDSETKKQLEEEEKKIISEEHWYLDLPELKEKESFIIEEQSFLLCEDLLYGRMSFRGFNPEVEKLMLQMNAKHKAEEVEDETVELDVSDEEMARRYETLVGTIGKKFARKRDHANYEEDENGDITPIKAKKMFLKPQD
binding [4]: binds | binding [5]: binds

B5: FLAG-MPP6 Δ19–35 (protein, UniProt Q99547)
chain: MAAERKTRLSKNLLRMKFKKIISEEHWYLDLPELKEKESFIIEEQSFLLCEDLLYGRMSFRGFNPEVEKLMLQMNAKHKAEEVEDETVELDVSDEEMARRYETLVGTIGKKFARKRDHANYEEDENGDITPIKAKKMFLKPQD
binding [4]: binds | binding [5]: no binding

B6: FLAG-MPP6 Δ5–18 (protein, UniProt Q99547)
chain: MAAEMQRGLDSETKKQLEEEEKKIISEEHWYLDLPELKEKESFIIEEQSFLLCEDLLYGRMSFRGFNPEVEKLMLQMNAKHKAEEVEDETVELDVSDEEMARRYETLVGTIGKKFARKRDHANYEEDENGDITPIKAKKMFLKPQD
binding [4]: binds | binding [5]: no binding

More lines, now with the values ahead:

binding (GST-MPP6 ΔC33 (human)): binds | binding [1]: binds | binding (GST-MPP6 ΔN35 (human)): binds | binding (GST-MPP6 ΔC11 (human)): binds
Molecule: FLAG-RRP45 (from UniProt Q06265 1-439)

binding [2]: binds | binding [3]: binds | binding (GST-MPP6 ΔC33 (human)): binds | binding [1]: binds | binding (GST-MPP6 ΔN35 (human)): binds | binding (GST-MPP6 ΔC11 (human)): binds
B1: RRP6 (protein, UniProt Q01780 1-885)
chain: MAPPSTREPRVLSATSATKSDGEMVLPGFPDADSFVKFALGSVVAVTKASGGLPQFGDEYDFYRSFPGFQAFCETQGDRLLQCMSRVMQYHGCRSNIKDRSKVTELEDKFDLLVDANDVILERVGILLDEASGVNKNQQPVLPAGLQVPKTVVSSWNRKAAEYGKKAKSETFRLLHAKNIIRPQLKFREKIDNSNTPFLPKIFIKPNAQKPLPQALSKERRERPQDRPEDLDVPPALADFIHQQRTQQVEQDMFAHPYQYELNHFTPADAVLQKPQPQLYRPIEETPCHFISSLDELVELNEKLLNCQEFAVDLEHHSYRSFLGLTCLMQISTRTEDFIIDTLELRSDMYILNESLTDPAIVKVFHGADSDIEWLQKDFGLYVVNMFDTHQAARLLNLGRHSLDHLLKLYCNVDSNKQYQLADWRIRPLPEEMLSYARDDTHYLLYIYDKMRLEMWERGNGQPVQLQVVWQRSRDICLKKFIKPIFTDESYLELYRKQKKHLNTQQLTAFQLLFAWRDKTARREDESYGYVLPNHMMLKIAEELPKEPQGIIACCNPVPPLVRQQINEMHLLIQQAREMPLLKSEVAAGVKKSGPLPSAERLENVLFGPHDCSHAPPDGYPIIPTSGSVPVQKQASLFPDEKEDNLLGTTCLIATAVITLFNEPSAEDSKKGPLTVAQKKAQNIMESFENPFRMFLPSLGHRAPVSQAAKFDPSTKIYEISNRWKLAQVQVQKDSKEAVKKKAAEQTAAREQAKEACKAAAEQAISVRQQVVLENAAKKRERATSDPRTTEQKQEKKRLKISKKPKDPEPPEKEFTPYDYSQSDFKAFAGNSKSKVSSQFDPNKQTPSGKKCIAAKKIKQSVGNKSMSFPTGKSDRGFRYNWPQR

binding [4]: binds | binding [5]: no binding
B4: FLAG-MPP6 ΔN35 (domain or fragment, UniProt Q99547 36-160)
chain: T3 sequence
